Experimental data from publication PMC4336329 (PLoS ONE, 2015).
The whole screen tested about 310,000 compounds, of which about 2,200 (0.71%) showed an effect of 50% or more. The effect is printed as a negative number. The list shows a part of the results.

target: human ether-à-go-go-related gene (hERG) potassium channel (human, UniProt Q12809); experiment: primary screen, population patch clamp on CHO cells stably expressing hERG
Sequence (Q12809 whole entry, looked up): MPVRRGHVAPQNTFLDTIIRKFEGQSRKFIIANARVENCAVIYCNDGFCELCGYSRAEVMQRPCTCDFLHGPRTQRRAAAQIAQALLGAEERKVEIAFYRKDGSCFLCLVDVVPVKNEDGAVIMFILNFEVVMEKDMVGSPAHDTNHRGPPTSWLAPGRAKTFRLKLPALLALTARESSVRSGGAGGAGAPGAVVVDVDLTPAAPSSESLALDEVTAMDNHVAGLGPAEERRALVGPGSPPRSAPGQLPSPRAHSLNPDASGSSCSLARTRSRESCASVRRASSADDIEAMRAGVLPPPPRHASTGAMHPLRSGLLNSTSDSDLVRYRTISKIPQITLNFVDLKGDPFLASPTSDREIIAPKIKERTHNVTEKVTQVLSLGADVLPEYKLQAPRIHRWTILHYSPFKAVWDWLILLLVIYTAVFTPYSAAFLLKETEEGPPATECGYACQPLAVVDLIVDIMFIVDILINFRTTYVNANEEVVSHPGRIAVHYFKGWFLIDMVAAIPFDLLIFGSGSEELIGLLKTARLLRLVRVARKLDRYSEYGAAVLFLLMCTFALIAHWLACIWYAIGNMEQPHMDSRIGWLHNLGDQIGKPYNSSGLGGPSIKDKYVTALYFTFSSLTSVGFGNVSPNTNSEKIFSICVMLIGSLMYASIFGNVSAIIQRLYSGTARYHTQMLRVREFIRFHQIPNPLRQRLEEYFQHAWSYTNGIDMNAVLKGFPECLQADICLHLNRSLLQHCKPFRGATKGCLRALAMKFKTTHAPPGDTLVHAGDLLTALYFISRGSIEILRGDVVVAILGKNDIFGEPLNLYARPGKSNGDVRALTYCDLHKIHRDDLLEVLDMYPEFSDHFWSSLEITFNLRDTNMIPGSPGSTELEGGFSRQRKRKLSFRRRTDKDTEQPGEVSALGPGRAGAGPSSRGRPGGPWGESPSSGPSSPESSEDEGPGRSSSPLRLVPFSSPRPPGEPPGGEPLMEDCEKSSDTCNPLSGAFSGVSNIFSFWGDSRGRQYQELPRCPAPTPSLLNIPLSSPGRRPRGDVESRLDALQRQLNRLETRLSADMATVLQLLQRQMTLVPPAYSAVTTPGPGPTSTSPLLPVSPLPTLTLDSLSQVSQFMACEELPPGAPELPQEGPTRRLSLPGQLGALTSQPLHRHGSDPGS

Compound | hERG current change (%, negative = inhibition) at 1uM [%]
O=C(CN1C(=O)c2ccccc2S1(=O)=O)NCc1ccc(F)cc1 | 16.7
CCN(Cc1ccccc1)C1CCN(Cc2ccccc2)CC1 | 7.92
O=C1CNC(=S)N1Cc1ccc(Cl)cc1 | 13.3
CC12CC3CC(C)(C1)CC(C(=O)NC(=S)N1CCCCC1)(C3)C2 | 8.07
COc1cc(/C=N/N2CCN(Cc3ccc(Cl)cc3)CC2)cc(Br)c1O | 9.38
CCOC(=O)c1cc(NC(=O)c2ccc(OC)cc2)c(=O)oc1-c1ccccc1 | 5.82
CC(C)C1CC(C(=O)Nc2ccccc2)C(=O)O1 (stereo not drawn) | 13.4
COc1ccc(N2CCN(C(=O)c3cccc(S(=O)(=O)N4CCOCC4)c3)CC2)cc1 | 14.7
COC(=O)CSc1nsc(SCC(=O)OC)n1 | -0.203
COc1cc(NC(=O)COC(=O)/C=C/c2ccccc2Cl)cc(OC)c1 | 10.1
Cc1nnc(SCC(=O)NNC(=O)COc2ccc(Cl)cc2)s1 | 11.9
Cc1[nH]c2ccccc2c1C(=O)C(=O)N1CC=C(c2ccccc2)CC1 | -1.07
Cc1c(N/C(=N/S(=O)(=O)c2cc([N+](=O)[O-])ccc2Cl)c2ccccc2)c(=O)n(-c2ccccc2)n1C | 2.51
COc1ccc(CN(C(=O)CN2C(=O)NC3(CCC(C)CC3)C2=O)C(C)Cc2cccs2)cc1 (stereo not drawn) | -13.7
COc1ccc(Br)cc1C1CC(=O)C(C)C(c2cc(Br)ccc2OC)N1 (stereo not drawn) | 17.3
c1ccc(-c2ncnc3nc4n(c23)CCC4)cc1 | 9.11
COc1ccc(-c2sc3cc(OC)c(OC)cc3c2C#CCCO)cc1 | 15.5
Cc1ccccc1N1CCN(Cc2ccc(Br)o2)CC1 | 4.76
CCN1C(=O)/C(=C\N(C)C)NC1=S | 12.5
C[C@H](NC(=O)CCCn1nnc2ccccc2c1=O)C(=O)O | 2.22
CCc1ccc2c(CN3CCc4ccccc43)cc(=O)oc2c1 | 12.7
CC1(C)CC(=O)C2=C(C1)N1CCCCC1CC2=O (stereo not drawn) | 4.55
Cc1ccc(C)c(N2CCN(C(=O)CCn3c(=S)[nH]c4cc5c(cc4c3=O)OCO5)CC2)c1 | 5.54
COc1ccc(C(C)=O)cc1COC(=O)CNC(=O)c1ccc(F)cc1 | 5.59
Cc1ccc(-n2c(CNc3ccc(F)cc3)nnc2SCC(=O)O)cc1 | 14.7
CCOc1cccc(OCCOCCNC(C)(C)C)c1.O=C(O)C(=O)O | 11.7
CC(C(c1cccs1)c1c(N)n(C)c(=O)n(C)c1=O)[N+](=O)[O-] (stereo not drawn) | 8.07

Compound | hERG current change (%, negative = inhibition) at 1uM [%]
O=C(CN1c2ccccc2Sc2ccccc21)N/N=C/c1ccc(Cl)cc1 | 4.36
COc1ccc(S(=O)(=O)NCCc2c[nH]c3ccccc23)cc1OC | 12.4
N#Cc1ccc(NC(=O)CCc2nc3ccccc3s2)cc1 | 7.52
CC(C)N=C(NS(=O)(=O)NC(=O)c1ccccc1)c1ccccc1 | 1.76
Cn1c(=O)n(CC(=O)O)c(=O)c2c1nc1n2CCCN1CCc1ccccc1 | 11.4
COc1ccc(C(=O)Nc2c3c(nn2-c2cccc(Cl)c2)CS(=O)C3)cc1 (stereo not drawn) | -1.67
COc1ccc(CCNC(=O)C2CC(c3ccc([N+](=O)[O-])cc3)=NO2)cc1 (stereo not drawn) | -44
CC(=O)c1c(NCCc2ccccc2)cc(C)oc1=O | -2.33
CSc1nc2n(n1)C(c1cccc(F)c1)C(C(=O)Nc1ccc(C)cc1C)=C(C)N2 (stereo not drawn) | 3.03
COc1ccc(S(=O)(=O)N(CC(=O)Nc2ccc3c(c2)OCO3)c2ccccc2OC)cc1 | 6.56
CCOc1cc(N2CCOCC2)c(OCC)cc1NC(=O)COc1cccc2cccnc12 | 14
Cc1ccc2c(c1)nnn2C1CCN(CC(=O)N(c2ccccc2)c2ccccc2)CC1 | 14.7
CO[C@H]1O[C@H](C)[C@@H](O)C[C@H]1NC(=O)OCc1ccccc1 | 15.1
CCOc1ccccc1C(=O)N1CCC(n2nnc3cc(C)ccc32)CC1 | -8.63
COc1ccc(C2/C=C\CN(S(=O)(=O)/C=C/c3ccccc3)[C@H](Cc3ccccc3)C(=O)N2Cc2ccc(F)cc2)cc1 (stereo partly drawn) | 6.14
Cc1ccnc(N2C(=O)c3ccccc3C2Nc2ccc3c(c2)OCCO3)c1 (stereo not drawn) | 6.78
CC1=C(C)CC(C(=O)Nc2nc(-c3ccc(C)cc3C)c(C)s2)C(C(=O)O)C1 (stereo not drawn) | 17.9
COc1ccccc1OCC(=O)Nc1ccc(S(=O)(=O)N(C)c2ccccc2)cc1 | 8.13
CC(C)(C)c1csc(NC(=O)c2c(F)c(F)c(F)c(F)c2F)n1 | -2.19
O=C(O)CS(=O)(=O)c1ccc(C(F)(F)F)cn1 | 10.3
Cc1cc(S(=O)(=O)Nc2cccc(O)c2)c(C)s1 | 6.52
CSc1ccc(/C=N/NC(=O)CN2CCN(Cc3ccc(C)cc3)CC2)cc1 | 2.67
CCC(=O)Nc1nc2ccccc2n1CCN1CCOCC1 | 18.8
COC(=O)c1ccccc1NC(=O)CN1CCc2ccccc2C1 | 9.12
CC[C@H](C)[C@@H](C(=O)NCCCCCCCCCCC(=O)N1CCN(C(=O)OC(C)(C)C)CC1)n1cc(CCCCN=C(NC(=O)OC(C)(C)C)NC(=O)OC(C)(C)C)nn1 | 7.43
CCN(CC)c1ccc(/C=C(\C#N)C(=O)NCc2ccccc2)cc1 | -8.78
CC(C)(C)NC(=O)C(c1ccco1)N(Cc1ccc2c(c1)OCO2)C(=O)Cn1nnc2ccccc21 (stereo not drawn) | 8.71
